In the supplement of paper PMC10126150:
Values marked as one replicate rest on one cluster of the flow cell; about a third of the high ones do not repeat.

System: ATP
Assay: switch fluorescence ratio, 500 uM ATP over buffer (Cy3 cluster intensity, sum of 5 cycles each) (fold (ratio)); higher = stronger signal-on switching upon ATP binding; sequences stand for … in TCGTCGGCAGCGTCAGATGTGTATAAGAGACAGTTTTTTTTTTTTTTTTTTTTTTTTT…TC
Conditions: aptamer strand: ATP DNA aptamer (quencher-CACCTGGGGGAGTATTGCGGAGGAAGG + anchor), 100 nM annealed; ATP concentration: 500 uM; one replicate
Procedure, shortened: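 The fluorescence ratio divides summed target-cycle Cy3 intensity by summed buffer-cycle Cy3 intensity for each cluster and is averaged per switch-domain sequence. Cy3-labelled switching-strand clusters on a modified Illumina MiSeq flow-cell were annealed to 100 nM quencher-labelled ATP aptamer, then imaged in selection buffer and again after 15 min with 500 uM ATP at 22 °C. Five such cycles were run, with NaOH stripping and re-annealing between them, and clusters outside 100-1000 RFU were excluded.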
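Further: ATP exposure 15 min at 22 °C before imaging.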

Sequence | switch fluorescence ratio
CTCTTAAAGC | 1.12
GGCACGTTT | 0.988
ACCAATGCGT | 1.08
CCGTGTGGAC | 1.2
CTCCGTGCG | 1.66
CATGCCATTT | 0.989
TATGAAAAAG | 1.03
AGGCGCGAA | 1.02
TTGCTGTAGA | 1.02
CGGAGTCTCA | 1.08
TTAGTACTCT | 1.33
TTACATATA | 1.05
AACGTGATTG | 1.03
GAAATTAGAG | 0.966
CAAATTCATT | 1.04
TTCAAATTAT | 0.992
GAAGCCTTCT | 1.06
ACGGTGTGTC | 1.01
GATTTACATC | 1.04
ACGGCGCAGT | 1.25
CAGTTGAAAT | 0.985
GAGAGAGAGA | 1.04
TGCGTTCGGT | 1.01
TTTGCCAGAG | 1.07
ACAAGCCATT | 1.05
ACAACGCCCT | 1.15

Sequence | switch fluorescence ratio
ACGTGTACAC | 1.05
GGACGGTCCC | 0.969
TCGACTTTTT | 1.03
CATCAATGTT | 1
TCTTTGCT | 0.979
ACGATTGAGG | 0.992
AGGCTGCCCA | 0.995
TTAGAAGAAA | 1.06
CGGTTTCTG | 0.991
TCATCGCTTA | 1.14
TGCCGCCCCG | 1.12
CAAATAGTTC | 0.952
ACACTAAGGG | 1.05
GGTAATAATT | 1
TTGATGCTT | 0.962
GAAAGGTAGC | 1.02
AACTTAGAAG | 1.01
GGGTCCGCCA | 1.71
ATCGAGCCAC | 1.02
ACGGAACCAA | 1.19
GACTTCTTAT | 1.03
ATGGAGGTTC | 1.02
GACGCCACGT | 1.53
GGCTTTCAGA | 0.955
AAGTGGATTC | 0.988
CGCTTGCCGG | 1.02

Sequence | switch fluorescence ratio
AGGAAACACT | 0.992
GGGCCACCAT | 1.02
CTAACGTGCT | 0.984
AGTGGAGGCC | 1.03
GTTAGCGCCT | 0.961
GACTACTGTT | 0.967
TAAATTTCCT | 1.11
AGGTCAACTC | 1.01
GGCGAGGTCT | 1.03
GGTACCACAG | 1.01
GGAGGTTCTG | 0.995
GCATCGTGTT | 0.995
TACCGAAACA | 0.976
GCTCGACCAG | 1.35
TAACTGTCGT | 0.982
GTTCGCAGCT | 1.08
TGGGCGTAAT | 1.35
ATTATTGCAG | 0.999
AAGTCTAGGG | 0.977
TGTTTTGG | 0.971
TGAAATATGC | 0.992
TAAGTACTTA | 1.02
TCGGCAGTAT | 1.04
ATCAAGTATA | 0.963
AGGTGGTTGC | 0.979
TCCGGTTGTG | 1.02

Sequence | switch fluorescence ratio
CATATGGCGT | 0.983
GGTATTTCA | 1.02
CCGATTTGTT | 1.04
TGTGGTTGT | 1
GGAGAATGTG | 0.916
GAGCCCATCA | 1.03
GTAATGCTTC | 1.1
GTTGAAATAG | 1.04
TGAGAACGGA | 1.01
GTGGTCGGTT | 0.987
TGATATAATA | 1.01
GGAGAACTAT | 1.08
AGAGGTTAAC | 1.03
CGTCCAGCGA | 2.15
TTGTAACCTT | 1.42
GTTGATCTG | 0.984
ATGGGACGGA | 1.04
CCCCATCGCG | 1.06
TGCTTATGTA | 0.972
GCACGCGGGC | 0.992
ATAGCCATTA | 0.993
CTAACAGTAA | 1.05
CGAATAAGCC | 1
ACATATAACC | 1.06
CCCAGAGATG | 1.11
TAAAAGACCC | 1

Sequence | switch fluorescence ratio
GTAATCGGTC | 1.02
TTCTATAGGA | 1.02
ATTCTCCGG | 1.1
TTCGGGCCCT | 1.01
GCGTATGTGT | 0.996
CTGGGTTATC | 1.01
ACTCGTTTGC | 1.04
CTTGCAAAGC | 1.34
GACGGACTTA | 1.14
GTGGGGGCGA | 0.945
ATTGACAGCA | 1.06
GGGCAGAGG | 0.96
AGCTACTGTA | 1.16
TCCTTTGGAA | 1.06
TGGCAGGGT | 1.06
ACCTGAGTA | 1.05
TCTTGGAAAA | 1.01
CACATGAGGA | 1.03
AGAAGGGCCT | 0.976
GTCCTGAGG | 0.967
GGTGCTTGCC | 0.929
GAAGGTCTC | 0.977
TAGTATATGG | 1.04
CGTACGATTG | 1.03
ATGTTCGGAC | 1.03
CTAGCCTTTT | 0.999

Sequence | switch fluorescence ratio
ATAGAGGGAC | 1.05
TCAGACTAAT | 1.02
TCCCTTCCTG | 1.67
CGCGTACTTG | 1.1
TAGCCAGGTA | 1.02
TACTTCGGGC | 1.02
GCCAATCTTC | 1.02
AGGGAGACGC | 0.966
ATTATTTTTG | 1.04
ATGAGGTAGT | 0.998
GTGGATAGAG | 0.968
AATCTAGCCA | 0.952
CATGCACTCT | 1.03
TCTGGCCAAC | 1.04
ACAAGTCAGA | 1.01
GCTTCGTATT | 0.986
TTTGATTATT | 1
GGAAGTGAT | 0.998
ATCGGCTAAT | 1.01
GGATATGCTA | 1.04
GTTTTGATGA | 1
GTAAAGGGCT | 1.04
GTTGACGCGA | 1.55
